We go through 31 molecules from PMC9911399, “Two distinct binding modes provide the RNA-binding protein RbFox with extraordinary sequence specificity”.

Changes are numbered by the printed parent chain; changes in the protein carry UniProt numbers. Some of the results follow.

T1: RBFOX1 RRM (Homo sapiens, UniProt Q9NWB1 109-208)
T1 sequence: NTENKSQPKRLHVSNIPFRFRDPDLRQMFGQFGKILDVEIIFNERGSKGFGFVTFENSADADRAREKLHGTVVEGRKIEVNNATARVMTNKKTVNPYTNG

B1: GGGGAGA (DNA:RNA)
RNA: GGGAGACCGGAAUUCAGAUUGUCCGGGGAGAUUAAAUCCCGUCGUAGCCACCA
DNA 1: CAATCTGAATTCCGGTCTCCC
DNA 2: TGGTGGCTACGACGGGATT
B2: CGCCCCU (DNA:RNA)
RNA: B1 RNA with G25C, G27C, G28C, A29C, G30C, A31U
DNA 1: CAATCTGAATTCCGGTCTCCC
DNA 2: TGGTGGCTACGACGGGATT
B3: ACCGCAU (DNA:RNA)
RNA: B1 RNA with G25A, G26C, G27C, A29C, G30A, A31U
DNA 1: CAATCTGAATTCCGGTCTCCC
DNA 2: TGGTGGCTACGACGGGATT
B4: GUAUGCU (DNA:RNA)
RNA: B1 RNA with G26U, G27A, G28U, A29G, G30C, A31U
DNA 1: CAATCTGAATTCCGGTCTCCC
DNA 2: TGGTGGCTACGACGGGATT
B5: UUGUCUC (DNA:RNA)
RNA: B1 RNA with G25U, G26U, G28U, A29C, G30U, A31C
DNA 1: CAATCTGAATTCCGGTCTCCC
DNA 2: TGGTGGCTACGACGGGATT
B6: GUAGCUG (DNA:RNA)
RNA: B1 RNA with G26U, G27A, A29C, G30U, A31G
DNA 1: CAATCTGAATTCCGGTCTCCC
DNA 2: TGGTGGCTACGACGGGATT
B7: CUAGAUC (DNA:RNA)
RNA: B1 RNA with G25C, G26U, G27A, G30U, A31C
DNA 1: CAATCTGAATTCCGGTCTCCC
DNA 2: TGGTGGCTACGACGGGATT
B8: AACGCUC (DNA:RNA)
RNA: B1 RNA with G25A, G26A, G27C, A29C, G30U, A31C
DNA 1: CAATCTGAATTCCGGTCTCCC
DNA 2: TGGTGGCTACGACGGGATT
B9: UACCCUA (DNA:RNA)
RNA: B1 RNA with G25U, G26A, G27C, G28C, A29C, G30U
DNA 1: CAATCTGAATTCCGGTCTCCC
DNA 2: TGGTGGCTACGACGGGATT
B10: UGAUUCG (DNA:RNA)
RNA: B1 RNA with G25U, G27A, G28U, A29U, G30C, A31G
DNA 1: CAATCTGAATTCCGGTCTCCC
DNA 2: TGGTGGCTACGACGGGATT
B11: AAAUUCU (DNA:RNA)
RNA: GGGAGACCGGAAUUCAGAUUGUCCAAAUUCUUUAAAUCCCGUCGUAGCCACCA
DNA 1: CAATCTGAATTCCGGTCTCCC
DNA 2: TGGTGGCTACGACGGGATT
B12: GUAGGUA (DNA:RNA)
RNA: B1 RNA with G26U, G27A, A29G, G30U
DNA 1: CAATCTGAATTCCGGTCTCCC
DNA 2: TGGTGGCTACGACGGGATT
B13: GUCCAAC (DNA:RNA)
RNA: B1 RNA with G26U, G27C, G28C, G30A, A31C
DNA 1: CAATCTGAATTCCGGTCTCCC
DNA 2: TGGTGGCTACGACGGGATT
B14: AUCGUCU (DNA:RNA)
RNA: B11 RNA with A26U, A27C, U28G
DNA 1: CAATCTGAATTCCGGTCTCCC
DNA 2: TGGTGGCTACGACGGGATT
B15: AGUCCGG (DNA:RNA)
RNA: B1 RNA with G25A, G27U, G28C, A29C, A31G
DNA 1: CAATCTGAATTCCGGTCTCCC
DNA 2: TGGTGGCTACGACGGGATT
B16: CCAACAU (DNA:RNA)
RNA: B11 RNA with A25C, A26C, U28A, U29C, C30A
DNA 1: CAATCTGAATTCCGGTCTCCC
DNA 2: TGGTGGCTACGACGGGATT
B17: GCAACUC (DNA:RNA)
RNA: B11 RNA with A25G, A26C, U28A, U29C, C30U, U31C
DNA 1: CAATCTGAATTCCGGTCTCCC
DNA 2: TGGTGGCTACGACGGGATT
B18: CGCAAUG (DNA:RNA)
RNA: B1 RNA with G25C, G27C, G28A, G30U, A31G
DNA 1: CAATCTGAATTCCGGTCTCCC
DNA 2: TGGTGGCTACGACGGGATT
B19: UGCUUGU (DNA:RNA)
RNA: B11 RNA with A25U, A26G, A27C, C30G
DNA 1: CAATCTGAATTCCGGTCTCCC
DNA 2: TGGTGGCTACGACGGGATT
B20: ACACAUU (DNA:RNA)
RNA: B11 RNA with A26C, U28C, U29A, C30U
DNA 1: CAATCTGAATTCCGGTCTCCC
DNA 2: TGGTGGCTACGACGGGATT
B21: GUGGACA (DNA:RNA)
RNA: B1 RNA with G26U, G30C
DNA 1: CAATCTGAATTCCGGTCTCCC
DNA 2: TGGTGGCTACGACGGGATT
B22: UCUACCA (DNA:RNA)
RNA: B11 RNA with A25U, A26C, A27U, U28A, U29C, U31A
DNA 1: CAATCTGAATTCCGGTCTCCC
DNA 2: TGGTGGCTACGACGGGATT
B23: AUGUCCG (DNA:RNA)
RNA: B11 RNA with A26U, A27G, U29C, U31G
DNA 1: CAATCTGAATTCCGGTCTCCC
DNA 2: TGGTGGCTACGACGGGATT
B24: CUCUCAA (DNA:RNA)
RNA: B11 RNA with A25C, A26U, A27C, U29C, C30A, U31A
DNA 1: CAATCTGAATTCCGGTCTCCC
DNA 2: TGGTGGCTACGACGGGATT
B25: UCGACUC (DNA:RNA)
RNA: B1 RNA with G25U, G26C, G28A, A29C, G30U, A31C
DNA 1: CAATCTGAATTCCGGTCTCCC
DNA 2: TGGTGGCTACGACGGGATT
B26: AGGAAUU (DNA:RNA)
RNA: B1 RNA with G25A, G28A, G30U, A31U
DNA 1: CAATCTGAATTCCGGTCTCCC
DNA 2: TGGTGGCTACGACGGGATT
B27: UGUUUAU (DNA:RNA)
RNA: B11 RNA with A25U, A26G, A27U, C30A
DNA 1: CAATCTGAATTCCGGTCTCCC
DNA 2: TGGTGGCTACGACGGGATT
B28: CGCGCCA (DNA:RNA)
RNA: B1 RNA with G25C, G27C, A29C, G30C
DNA 1: CAATCTGAATTCCGGTCTCCC
DNA 2: TGGTGGCTACGACGGGATT
B29: AUUGGGG (DNA:RNA)
RNA: B1 RNA with G25A, G26U, G27U, A29G, A31G
DNA 1: CAATCTGAATTCCGGTCTCCC
DNA 2: TGGTGGCTACGACGGGATT
B30: UGCAUGC (DNA:RNA)
RNA: B1 RNA with G25U, G27C, G28A, A29U, A31C
DNA 1: CAATCTGAATTCCGGTCTCCC
DNA 2: TGGTGGCTACGACGGGATT
B31: UUGGCUA (DNA:RNA)
RNA: B1 RNA with G25U, G26U, A29C, G30U
DNA 1: CAATCTGAATTCCGGTCTCCC
DNA 2: TGGTGGCTACGACGGGATT

The assay has as its target T1, RBFOX1 RRM. Description: EMSA; HiTS-Eq, 1 nM pool, 10 min; buffer printed only for the single-RNA assays: 10 mM Tris pH 7.5, 150 mM NaCl, 3.4 mM EDTA, 0.001% NP-40, 30 C. Particulars: tags: His6 N-terminal (pET28a); label: 5' 32P. The gist of the method: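 These values rest on relative association constants, computed from read-count changes of each RNA species versus the control reaction and normalised to the cognate motif. Reads came from free RNA recovered by 8% native PAGE after purified RbFox RRM (wild type or mutant) at increasing concentrations was equilibrated for 10 min in 50 µL with 1 nM of a 5′-radiolabelled pool with 7 randomized nucleotides and DNA-annealed flanks.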
Background: Mobility shift assays separate free from complexed probe on a gel.
Regarding B1, the binding signal was 0.0242 KA relative to UGCAUGU. The same measure for B2: 0.00718 KA relative to UGCAUGU. With B3 the figure was 0.00667 KA relative to UGCAUGU. With B4 the figure was 0.018 KA relative to UGCAUGU. Take B5: the binding signal was 0.0203 KA relative to UGCAUGU. With B6 the figure was 0.0129 KA relative to UGCAUGU; with B7, 0.0087 KA relative to UGCAUGU. The same measure for B8: 0.00593 KA relative to UGCAUGU; for B9: 0.00244 KA relative to UGCAUGU; for B10: 0.0228 KA relative to UGCAUGU.

Take B11: the binding signal was 0.0025 KA relative to UGCAUGU. As for B12, the binding signal is 0.00797 KA relative to UGCAUGU. The same measure for B13: 0.00461 KA relative to UGCAUGU; for B14: 0.0052 KA relative to UGCAUGU; for B15: 0.00695 KA relative to UGCAUGU. With B16 the figure was 0.000219 KA relative to UGCAUGU; with B17, 0.00821 KA relative to UGCAUGU; with B18, 0.00995 KA relative to UGCAUGU. With B19, the binding signal is 0.0532 KA relative to UGCAUGU. As for B20, the binding signal is 0.000256 KA relative to UGCAUGU. With B21 the figure was 0.00586 KA relative to UGCAUGU. The same measure for B22: 0.00171 KA relative to UGCAUGU; for B23: 0.00957 KA relative to UGCAUGU. With B24 the figure was 0.00218 KA relative to UGCAUGU. For the molecule B25, the binding signal is 0.0155 KA relative to UGCAUGU. The same measure for B26: 0.0135 KA relative to UGCAUGU; for B27: 0.0145 KA relative to UGCAUGU. With B28 the figure was 0.00401 KA relative to UGCAUGU; with B29, 0.00842 KA relative to UGCAUGU; with B30, 1.02 KA relative to UGCAUGU. The same measure for B31: 0.0186 KA relative to UGCAUGU.
